The other results are listed elsewhere or left out. The full chains were built here from the parent and the listed change. Inactive controls read about 0.05.
B1: TEV protease; numbered along this chain (parent)
chain: MGESLFKGPRDYNPISSSICHLTNESDGHTTSLYGIGFGPFIITNKHLFRRNNGTLVVQSLHGVFKVKDTTTLQQHLVDGRDMIIIRMPKDFPPFPQKLKFREPQREERICLVTTNFQTKSMSSMVSDTSCTFPSGDGIFWKHWIQTKDGQCGSPLVSTRDGFIVGIHSASNFTNTNNYFTSVPKNFMELLTNQEAQQWVSGWRLNADSVLWGGHKVFMVKPEEPFQPVKEATQL

Variants of: B1
Test: raw area under fraction-flipped curve 0-4 h after induction (AUC4h, not background-subtracted), DNA-recorder readout of cleavage of the substrate (dimensionless); higher = more cleavage of the substrate by the protease variant
Conditions: temperature: 34 °C; time window: 0-4 h after rhamnose induction
Procedure: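 In vivo DNA recorder in E. coli TOP10(DE3) ΔrhaA at 34 °C. Each TEVp single-site mutant (parent TEVp 0) is paired with a single-site variant of the 7-mer TEVs (canonical ENLYFQ|S). The substrate sits between flexible linkers in a Bxb1-sfGFP-TEVs-SsrA fusion, so cleavage stabilises Bxb1 and speeds flipping of a recombination array, read by NGS. The value is the raw area under the fraction-flipped curve over 0-4 h after rhamnose induction (AUC4h), with ≥20 reads per time point. It is not background-subtracted; inactive controls average about 0.047.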
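Further: Bxb1 expression induced with 0.2% (w/v) L-rhamnose at OD600 near 0.5, cultures sampled hourly, flipped fraction per protease–substrate barcode pair counted by paired-end Illumina sequencing.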

Variant | area with substrate EALYFQS | area with substrate ECLYFQS | area with substrate EDLYFQS | area with substrate EGLYFQS | area with substrate EILYFQS | area with substrate ELLYFQS | area with substrate EMLYFQS | area with substrate EQLYFQS | area with substrate ERLYFQS | area with substrate ESLYFQS | area with substrate ETLYFQS | area with substrate EWLYFQS | area with substrate EYLYFQS | area with substrate EELYFQS | area with substrate EFLYFQS | area with substrate EHLYFQS | area with substrate EKLYFQS | area with substrate EPLYFQS | area with substrate EVLYFQS
P104H | 0.0564 | 0.0429 | 0.0463 | 0.0408 | 0.042 | 0.053 | 0.0419 | 0.0367 | 0.0462 | 0.0256 | 0.0444 | 0.057 | 0.0658 |  |  |  |  |  | 
P104C | 0.0915 | 0.114 | 0.115 |  | 0.0752 | 0.0778 | 0.0906 | 0.0903 | 0.0784 | 0.1 |  | 0.115 |  | 0.102 | 0.074 | 0.104 | 0.0823 | 0.095 | 0.078
P104R | 0.0757 | 0.0527 |  | 0.0388 | 0.0521 | 0.0528 |  |  |  | 0.0576 | 0.0637 | 0.0583 |  | 0.0444 | 0.0706 | 0.0484 | 0.0548 | 0.0502 | 0.047
P104V | 0.115 | 0.0896 |  | 0.0627 | 0.105 |  | 0.097 | 0.0939 | 0.072 | 0.0842 | 0.0763 | 0.0621 | 0.0961 |  | 0.0808 | 0.102 | 0.0933 | 0.0947 | 0.0793
D79N | 0.147 |  | 0.15 |  | 0.103 |  | 0.0919 |  |  |  |  |  |  | 0.104 |  | 0.104 | 0.104 | 0.117 | 0.0815
L112K | 0.134 | 0.111 | 0.122 |  | 0.106 | 0.0699 | 0.168 | 0.101 | 0.0959 | 0.0911 | 0.102 | 0.124 | 0.0639 | 0.112 |  | 0.104 | 0.125 | 0.118 | 0.0879
L112M | 0.105 | 0.104 | 0.132 |  | 0.0908 | 0.101 |  | 0.0908 |  |  |  | 0.0979 |  | 0.138 | 0.0833 | 0.121 |  | 0.135 | 
L112A | 0.0847 | 0.0832 | 0.094 | 0.0969 | 0.0794 |  | 0.104 | 0.0899 | 0.0818 | 0.0911 | 0.104 | 0.08 | 0.0748 | 0.0914 |  | 0.0763 | 0.0793 | 0.1 | 0.0631
L112D | 0.0589 |  | 0.0455 |  | 0.0667 | 0.0506 | 0.0379 | 0.0539 | 0.0578 | 0.0534 | 0.0657 |  |  | 0.0485 | 0.0574 |  | 0.0589 | 0.061 | 
L112G | 0.0675 |  | 0.0824 | 0.0696 | 0.0664 | 0.0511 |  | 0.0758 |  | 0.0641 | 0.0616 | 0.0436 |  | 0.0728 |  | 0.0689 | 0.074 |  | 0.032
L112V | 0.0964 | 0.118 |  |  | 0.101 | 0.0566 |  | 0.0922 | 0.0996 | 0.0788 |  |  |  |  | 0.0883 |  | 0.114 | 0.0985 | 0.0914
L112T | 0.0744 | 0.062 |  |  | 0.0507 | 0.0776 |  | 0.0695 | 0.0846 | 0.0707 | 0.0757 |  |  | 0.0773 | 0.0863 | 0.0694 | 0.068 | 0.0911 | 0.0633
E108Q | 0.0545 |  | 0.0965 | 0.0714 | 0.0668 |  | 0.07 |  | 0.0357 | 0.0686 | 0.0588 | 0.0709 |  | 0.087 |  |  | 0.0903 |  | 0.0914
T115M | 0.0899 | 0.101 | 0.124 |  | 0.0838 |  | 0.107 | 0.113 |  | 0.101 | 0.107 | 0.102 |  | 0.112 | 0.133 | 0.0852 |  | 0.124 | 
T119I | 0.0174 |  |  |  |  | 0.0987 |  | 0.136 | 0.0751 | 0.0928 |  | 0.067 | 0.115 | 0.128 |  |  | 0.142 |  | 0.104
P96A | 0.121 | 0.107 |  |  | 0.111 | 0.0939 | 0.118 |  | 0.104 | 0.108 |  | 0.118 |  | 0.115 |  | 0.151 |  |  | 0.0904
P96C | 0.122 | 0.112 |  |  | 0.0858 | 0.11 |  | 0.123 | 0.154 | 0.126 |  | 0.117 | 0.114 |  |  |  | 0.136 | 0.136 | 
P96R | 0.115 |  |  |  | 0.118 | 0.0746 |  | 0.14 |  | 0.102 |  |  |  |  |  |  | 0.0992 |  | 0.0935
P96W | 0.111 | 0.0914 |  | 0.0733 | 0.11 |  |  |  | 0.0685 | 0.0913 |  |  |  | 0.0957 | 0.0902 | 0.088 | 0.0986 | 0.0995 | 0.0737
P96E | 0.118 | 0.104 | 0.124 | 0.0839 |  |  | 0.105 | 0.123 | 0.107 | 0.0984 | 0.128 |  | 0.142 |  |  |  |  |  | 0.105
P96T | 0.0879 | 0.0814 |  |  |  |  | 0.0814 | 0.102 | 0.0601 | 0.0964 |  |  |  | 0.131 |  |  |  |  | 
K120V | 0.11 | 0.0871 | 0.103 |  | 0.112 | 0.0887 | 0.0862 | 0.105 | 0.0988 | 0.103 |  | 0.0772 |  |  |  |  |  | 0.129 | 0.0807
K120I | 0.0786 | 0.0818 |  |  | 0.0927 |  | 0.107 | 0.129 | 0.116 | 0.0871 | 0.0993 |  |  | 0.109 |  | 0.0839 | 0.0905 | 0.126 | 
K120A | 0.154 |  |  | 0.0959 | 0.0894 | 0.0826 | 0.134 | 0.102 |  | 0.0977 | 0.106 |  |  | 0.126 |  |  | 0.111 |  | 0.103
K120C | 0.112 | 0.0563 |  |  | 0.0993 |  | 0.103 |  | 0.0909 | 0.0999 | 0.107 | 0.081 |  | 0.101 |  | 0.0816 | 0.0967 | 0.114 | 0.0919
K120D | 0.108 | 0.104 | 0.135 | 0.0888 | 0.082 |  | 0.0979 | 0.124 |  | 0.0574 |  |  |  |  |  | 0.0732 | 0.0837 | 0.105 | 0.0834
S123W | 0.106 | 0.116 | 0.113 | 0.102 | 0.1 | 0.127 | 0.0973 | 0.121 | 0.105 | 0.102 | 0.106 | 0.0817 | 0.134 | 0.127 | 0.137 | 0.114 | 0.117 | 0.133 | 0.0854

From the supplement of paper PMC12217912
